According to the supplement of paper PMC10126150:
Sequences with one replicate were seen in a single cluster, so their values are uncertain.

System: ATP
Assay: switch fluorescence ratio, 500 uM ATP over buffer (Cy3 cluster intensity, sum of 5 cycles each) (fold (ratio)); higher = stronger signal-on switching upon ATP binding; sequences stand for … in TCGTCGGCAGCGTCAGATGTGTATAAGAGACAGTTTTTTTTTTTTTTTTTTTTTTTTT…TC
Conditions: aptamer strand: ATP DNA aptamer (quencher-CACCTGGGGGAGTATTGCGGAGGAAGG + anchor), 100 nM annealed; ATP concentration: 500 uM; one replicate
Procedure, shortened: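 Clusters carrying Cy3-labelled switching strands on a modified Illumina MiSeq flow-cell were annealed to 100 nM quencher-labelled ATP aptamer and imaged in selection buffer. They were imaged again after 15 min with 500 uM ATP at 22 °C, over five buffer/ATP cycles with NaOH stripping and re-annealing in between. For each cluster, the fluorescence ratio is the summed Cy3 intensity of the target cycles divided by that of the buffer cycles, averaged per switch-domain sequence. Clusters outside 100-1000 RFU were left out.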
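Further: ATP exposure 15 min at 22 °C before imaging.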

| Sequence | switch fluorescence ratio |
| --- | --- |
| TGCACCACTG | 0.976 |
| ATGGAAGAGC | 1.02 |
| AGCTTGATGG | 0.991 |
| GTCTATGCGC | 1.01 |
| CAAGCAGGAG | 1.19 |
| GATGAATAAG | 0.941 |
| GATGCTGCAG | 0.995 |
| GGGCTAAGGA | 0.943 |
| CGTATGGATG | 1.05 |
| TCGACAGGTC | 1.03 |
| GAGTCTGGAA | 1.25 |
| GTAACTGGAC | 1.2 |
| TGACACTAGA | 1.02 |
| GACGGTGTGA | 0.999 |
| CTTTATGGG | 0.974 |
| TGTACTCAGC | 1.11 |
| TATGTCGACG | 1.02 |
| TTGTAGTG | 1.05 |
| AACTATTTAT | 1.03 |
| TGCTGGACCT | 1.16 |
| AGTCGATCCT | 1.03 |
| GAGTCGGAAC | 0.977 |
| ACTACACGCA | 1.19 |

| Sequence | switch fluorescence ratio |
| --- | --- |
| TCAGAGACTT | 0.995 |
| CAGAGTTCCG | 0.904 |
| TAGCCATAG | 1.06 |
| TGCTTTGTGA | 1.02 |
| GTTACTGCGA | 1.09 |
| AGTTGATTCC | 1.06 |
| GGGGCCGCCG | 0.997 |
| AGCGAACTGA | 1.03 |
| ACGTTCTTAT | 1 |
| TGCTTCCGGG | 1.27 |
| AGACGATGTT | 0.973 |
| GTTTGATCCT | 0.994 |
| CATGGAAGGT | 0.992 |
| TCTCGGCGG | 0.998 |
| GAGTGCAGCA | 1.01 |
| AAGGTCCCGT | 1.03 |
| CGGTCATGTA | 1.02 |
| GGTCGTGGCG | 1.07 |
| CGACCAGGGC | 1.52 |
| AAGATGTTAT | 1 |
| GCCCAGGGCT | 0.997 |
| TCTTAGGCGA | 1.03 |
| ACGATACTCT | 1.62 |

| Sequence | switch fluorescence ratio |
| --- | --- |
| GAGGGTGCGC | 1.4 |
| CCCTAGTGTA | 1.14 |
| GCAATTGGGG | 0.996 |
| TATTGCAA | 0.993 |
| GCCTGCTTGT | 1.03 |
| ACGTGCCCTG | 1.01 |
| AACCTAAG | 1.02 |
| GTAGCCAT | 1.09 |
| GATATGGTTT | 1.01 |
| GTGGGACGCC | 1 |
| GTAGTAGTCT | 1.1 |
| AAATATAAAT | 0.983 |
| TTGCAAGCC | 1.61 |
| ATGGTTGACT | 1.01 |
| TAGTAGGG | 0.955 |
| CTAATGTCAA | 1.09 |
| CGGTCTAAGT | 0.985 |
| TTAGGAGTTG | 1.01 |
| ATCAGAGATG | 0.994 |
| TGCGCTAAGT | 1.03 |
| CTCCAGGGCG | 1.06 |
| GCAACGTGTG | 0.992 |
| TTTAACGTTC | 0.963 |

| Sequence | switch fluorescence ratio |
| --- | --- |
| GCACTTGCCA | 1.05 |
| GATTGTGAAA | 0.98 |
| TCATATAACA | 1.01 |
| CACGTGCCGT | 1.06 |
| TGTTCGTTTG | 0.965 |
| CGCCTAGGAT | 1.04 |
| CTATTCGACG | 0.973 |
| GCATAGTGGA | 1.01 |
| CTCGGTAACG | 1.05 |
| TCAAAACTCG | 1.02 |
| TTCAGATATT | 0.99 |
| CTCTGATGAG | 1.01 |
| ATTACACCAG | 1.11 |
| CAAGTCCACT | 1.03 |
| AGTCACTGCT | 0.948 |
| CATCCCGGCC | 1.28 |
| CACCTGGAGA | 1.06 |
| TCGAGAGCG | 0.998 |
| TGCATAATGT | 1.01 |
| TTGTGGTTTT | 0.993 |
| TCAGGTCATT | 0.986 |
| AGAAGCACAA | 1.18 |
| CCACCTGTCT | 1.04 |

| Sequence | switch fluorescence ratio |
| --- | --- |
| GGATTGGGAA | 0.994 |
| TCGCAACAGC | 2.12 |
| TCTTGGAGAC | 0.965 |
| TCGCTTTCGG | 1.01 |
| TTTTGCTAAA | 2.56 |
| TGATGTATAA | 0.991 |
| TATTTCAGTT | 0.957 |
| AAAGAGAGG | 1.09 |
| ATTAGATCTT | 0.987 |
| GGCGGCGGCT | 1.09 |
| CCTGCCCTTG | 1.06 |
| TTCGGCAGCG | 1.04 |
| TTTCTATAGT | 1.01 |
| CCGATCGTAG | 3.99 |
| ATTAAGGATC | 1.02 |
| TGACCCATTG | 0.995 |
| TCAGCGTTGA | 1.03 |
| TAGCTTAGTG | 1.01 |
| ACCTGAGGTG | 1.51 |
| TCCAGGCA | 1.04 |
| AAGATTGTCA | 0.965 |
| AAGTGCTGGT | 0.975 |
| ACGTTGCAGT | 0.962 |

| Sequence | switch fluorescence ratio |
| --- | --- |
| TTTGCGGGCC | 0.96 |
| CCTATTAATT | 0.998 |
| TAAGGTAAGA | 0.938 |
| AACTGCACTG | 1.32 |
| TGTAGCTTCA | 1.3 |
| TAGACGAGGA | 0.858 |
| GCTACCCTTT | 1.09 |
| GATCAGGGTG | 1.08 |
| TATCTACATA | 1.08 |
| TTAGACCCCC | 1.53 |
| GGAGGATGTA | 0.972 |
| TCTAGCTTTG | 1.06 |
| AAGGCTACC | 1.04 |
| GTGATCTCCG | 1.13 |
| TAAGAGATTA | 1.05 |
| ATCTAAGT | 0.976 |
| CGCCTTATTA | 0.93 |
| GCGCTGAAGA | 1.02 |
| CCTGCCAGGT | 1.51 |
| AATACGAAA | 1.05 |
| TGGAATATG | 1.16 |
| AGCTAATCTT | 0.98 |
| GCGGTGGGAT | 1.04 |

| Sequence | switch fluorescence ratio |
| --- | --- |
| TACGTTCGGA | 1.03 |
| CGTCCGTCTC | 1.13 |
| AAACTAATAG | 1.02 |
| TATCTATTAG | 1.02 |
| GTTCTTTGGT | 0.965 |
| AGTTATATAA | 1.01 |
| GGTTGGATCA | 1.06 |
| TCTGGTCTGT | 1.01 |
| AGTGTAAGGG | 0.979 |
| CCTTACTTTA | 1.06 |
| GTTTGAGATC | 1 |
| AAGGTCATGG | 1.01 |
| GCTTAGCCTA | 0.987 |
| CATGGTAAGC | 1 |
| GAAAAATACT | 0.997 |
| AGGGCCTACC | 0.973 |
| GGATTGGTG | 0.98 |
| GCTTAAACAT | 1.01 |
| CCCGACGAGA | 3.55 |
| GAATATAAGG | 1.02 |
